In PubChem BioAssay AID488969 (Vanderbilt High Throughput Screening Facility, 2010):
Over roughly 110,000 compounds, “z-score” has its median near -0.1; the highest 2% begin near 2. The list shows a part of the results.

Target: Metabotropic glutamate receptor 8 (Rattus norvegicus) (UniProt P70579)
Experiment: mGluR8 Gi/Go-coupled signaling modulation – cell-based, rat, thallium flux, HTS, primary screen (AID 488969)
Conditions: HEK293 rat mGluR8, GIRK (G protein-gated inwardly rectifying potassium channel) thallium flux, FluoZin2; at 10 µM; stronger effect = higher value; submaximal glutamate (EC20) added with thallium

Sequence of UniProt P70579 (P70579 whole entry, looked up): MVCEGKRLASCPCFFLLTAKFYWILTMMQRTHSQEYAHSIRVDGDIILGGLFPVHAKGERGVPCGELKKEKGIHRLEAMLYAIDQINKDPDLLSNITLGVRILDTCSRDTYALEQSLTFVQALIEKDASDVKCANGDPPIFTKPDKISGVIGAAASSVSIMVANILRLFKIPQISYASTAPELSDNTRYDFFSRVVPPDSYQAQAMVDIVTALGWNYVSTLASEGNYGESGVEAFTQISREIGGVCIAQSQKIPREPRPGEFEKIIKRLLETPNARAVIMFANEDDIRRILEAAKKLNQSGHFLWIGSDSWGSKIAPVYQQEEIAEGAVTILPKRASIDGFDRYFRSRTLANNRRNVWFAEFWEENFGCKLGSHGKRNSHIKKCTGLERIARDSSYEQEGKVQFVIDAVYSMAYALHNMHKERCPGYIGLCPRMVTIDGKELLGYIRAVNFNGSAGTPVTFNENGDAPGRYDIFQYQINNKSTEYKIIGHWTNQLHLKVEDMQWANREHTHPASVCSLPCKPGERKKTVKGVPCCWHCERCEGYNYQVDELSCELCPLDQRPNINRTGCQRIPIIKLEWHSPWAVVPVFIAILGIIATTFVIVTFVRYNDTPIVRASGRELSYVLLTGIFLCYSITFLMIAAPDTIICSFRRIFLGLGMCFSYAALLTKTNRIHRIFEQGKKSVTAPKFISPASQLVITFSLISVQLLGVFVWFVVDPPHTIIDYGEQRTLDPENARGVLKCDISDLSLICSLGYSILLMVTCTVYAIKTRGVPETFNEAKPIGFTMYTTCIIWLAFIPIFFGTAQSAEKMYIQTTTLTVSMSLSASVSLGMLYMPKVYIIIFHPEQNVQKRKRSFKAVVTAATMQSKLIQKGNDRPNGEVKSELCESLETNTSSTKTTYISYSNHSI

Row | Compound | z-score
1 | Cc1ccc2nc(SCC(=O)Nc3cc(C(F)(F)F)ccc3N3CCOCC3)[nH]c2c1 | -0.336
2 | CS(=O)(=O)c1ccccc1COC(=O)Nc1ccc(Cl)cc1 | -0.294
3 | CC(C)Oc1ccc(OCCCN2CCCCCC2)cc1 | -0.0757
4 | Cc1ccc(C)c(NS(=O)(=O)c2ccc3c(c2)Cc2cc(S(=O)(=O)Nc4cc(C)ccc4C)ccc2-3)c1 | -0.189
5 | CC1=CC(C)(C)N(S(=O)(=O)c2ccc(F)cc2)c2ccc(C)cc21 | 1.47
6 | NCCCCCc1nnc(SC/C=C/c2ccccc2)o1 | 0.881
7 | Cc1ccc(NC(=O)c2cccs2)cc1S(=O)(=O)Nc1cccc(Cl)c1 | 0.176
8 | CC(=O)Nc1ccc(S(=O)(=O)N2CCN(c3ccccn3)CC2)cc1 | -0.0184
9 | CC1CCN(c2ncnc3ccccc23)CC1 | -0.308
10 | CC(=C/c1ccccc1)/C=N/Nc1nc(N2CCCCC2)nc(N2CCCCC2)n1 | -0.266
11 | Cc1ccc(/C=C(/C#N)c2nc(CCN3C(=O)c4ccccc4C3=O)cs2)cc1 | -0.248
12 | CC(=O)Nc1ccccc1-c1nnc(SCc2ccccc2Cl)[nH]c1=O | -0.587
13 | Cc1nn(Cc2ccccc2)c(Cl)c1C(=O)OCC(=O)NC(=O)NC12CC3CC(CC(C3)C1)C2 | -0.127
14 | CNc1nnc(-c2cccc(N(C)C)c2)s1 | 0.126
15 | CCc1cccc(C)c1NC(=O)COC(=O)c1c2c(nc3ccccc13)/C(=C\c1cccs1)CCC2 | -0.196
16 | Cc1ccc(C(C)C)c(OCCCN(C)Cc2ccccc2)c1 | -1.64
17 | Cn1c(C(=O)N2CCN(C3CCCCC3)CC2)cc2c(=O)n(C)c3ccccc3c21 | 0.387
18 | Fc1ccc(CNc2cnccn2)cc1 | 0.0947
19 | CCN(CC)CCCNC(=O)C1c2ccccc2C(=O)N(C)C1c1ccc(OC)cc1 (stereo unspecified) | -0.0495
20 | Cc1ccc(S(=O)(=O)NNC(=O)c2ccncc2)cc1 | -0.0308
21 | CCc1nc(SCC(=O)Nc2cc(C)on2)c2c(C)c(C)sc2n1 | -0.346
22 | COCCNc1cc(C)nc2ccccc12 | 0.0686
23 | CCOC(=O)N1CCN(C(=O)CN2C(=O)CC(C)(C)S(=O)(=O)c3ccccc32)CC1 | -0.198

Row | Compound | z-score
24 | CCCC(=O)Nc1c(-c2cccs2)c(=O)c2ccccc2n1CC | -0.138
25 | COc1ccc(CNC(=O)C(c2ccncc2)N(C(=O)Cc2cccs2)c2ccc(C)cc2)cc1 (stereo unspecified) | -0.278
26 | COc1ccc(C(CNC(=O)c2ccc(OCC3CCCO3)cc2)N2CCOCC2)cc1 (stereo unspecified) | -0.0369
27 | CCOc1ccc(NC(=O)C(=O)N/N=C\c2ccc(CNS(=O)(=O)c3ccccc3)o2)cc1 | -0.205
28 | NC1=NC(=O)/C(=C/c2ccccc2OS(=O)(=O)c2ccc3ccccc3c2)S1 | -0.052
29 | COc1ccc(N(C(=O)c2ccco2)C(C(=O)NC2CCCCC2)c2cccs2)cc1OC (stereo unspecified) | -0.187
30 | CCN(CC)c1ccc(C2C(C(=O)OC)=C(C)NC(C)=C2C(=O)OC)cc1 | 0.449
31 | CCC(C(=O)O)N1C(=O)/C(=C/c2cccn2C)SC1=S (stereo unspecified) | -0.533
32 | CCN(CC)S(=O)(=O)c1ccc(OC)c(NC(=O)c2cccc([N+](=O)[O-])c2C)c1 | -0.151
33 | Cc1nc2cc(NC(=O)NCCC3=CCCCC3)ccc2o1 | -0.45
34 | O=C1C(=O)N(CCCn2ccnc2)C(c2cccnc2)/C1=C(/O)c1ccccc1 (stereo unspecified) | -0.0867
35 | CCOC(=O)C1CCCN(C2CC(=O)N(c3cccc(C(F)(F)F)c3)C2=O)C1 (stereo unspecified) | -0.0457
36 | CCOc1ccc2c(c1)C(c1ccccc1)=NNC(c1ccccc1)=N2 | 0.0502
37 | CCOC(=O)C1C(=O)NC(c2ccccc2)=NC1c1ccc(Cl)cc1 (stereo unspecified) | -0.236
38 | COc1ccccc1NC(=O)CSc1nc2n[nH]c(C)c2c(=N)n1-c1ccccc1Cl | 0.184
39 | CC1CC(C)CN(S(=O)(=O)c2ccc(NC(=S)NC(=O)c3ccccc3)cc2)C1 (stereo unspecified) | -0.0543
40 | Cc1ccc2cc3c(NC(=O)c4ccco4)nn(CC(C)C)c3nc2c1 | 0.236
41 | O=C(NCCc1ccccc1)c1ccc([N+](=O)[O-])cc1 | 0.0109
42 | COCc1nnc(NC(=O)CC(C)c2ccccc2)s1 (stereo unspecified) | 0.602
43 | CCNc1cc(=O)n(C)c(=O)n1C | -0.258
44 | CNc1nc(-c2ccccc2)nnc1C(F)(F)F | 0.0523
45 | CC(C)NC(=O)NC(=O)COC(=O)c1ccc(NC(=O)CC#N)cc1 | -1.18
46 | CCCn1c(SCc2nc3sc(C)c(C)c3c(=O)[nH]2)nc2ccccc2c1=O | 1.3

Row | Compound | z-score
47 | Cc1ccc(C(c2nnnn2CCC(C)C)N2CCN(C)CC2)cc1 (stereo unspecified) | 0.783
48 | Cc1cc(C(=O)Nc2cccc(O)c2)c(C)o1 | 0.184
49 | Cc1ccc(NC(=O)c2ccc(NCCN)c([N+](=O)[O-])c2)cc1 | 0.0211
50 | Cc1cc(C)c2c(c1)C1C=CCC1C(c1ccc(S(=O)(=O)N3CCOCC3)cc1)N2 (stereo unspecified) | -0.0689
51 | CCOC(=O)C1CCN(C(=O)/C=C/c2cc(OC)c(OC)c(OC)c2)CC1 | 0.0221
52 | Cc1nn(-c2cc(N3CCCC3)ccc2[N+](=O)[O-])c(=O)c2ccccc12 | -0.519
53 | COc1ccc(/C(N)=N/OC(=O)CCCc2ccccc2)cc1OC | -0.242
54 | COc1ccc(NC(=O)CSc2ccc(C)cc2)cc1 | -0.0185
55 | COc1ccc(N2C(N)=C(C#N)C(c3cccnc3)C3=C2CC(C)(C)CC3=O)cc1 (stereo unspecified) | -0.207
56 | Cc1cc(NC(=O)CCn2c(=O)sc3ccccc32)no1 | -0.449
57 | COc1cc(C(=O)Nc2ccccc2N2CCN(S(C)(=O)=O)CC2)cc(OC)c1OC | -0.162
58 | Cc1cc2c(=O)n(Cc3ccco3)c(SCC(=O)NCc3ccco3)nc2s1 | -0.124
59 | O=C(/C=C/c1cc([N+](=O)[O-])ccc1OC(F)F)Nc1cccc(OC(F)F)c1 | 0.0478
60 | COc1ccc(CCN(C)c2ccc(S(=O)(=O)N3CCCC3)cc2[N+](=O)[O-])cc1OC | 0.0834
61 | COc1cc2c(C(=O)NCc3ccc4c(c3)OCO4)cn(C)c(=O)c2cc1OC | -0.397
62 | CCOC(=O)Nc1cc(OCC)c(NC(=O)C2CC2)cc1OCC | -0.0807
63 | Cc1cnc(NC(=O)c2cc3c(C)nn(-c4ccccc4)c3s2)s1 | -0.311
64 | COc1cccc(C2N(c3cccc(Cl)c3)C(=O)C3CCCN32)c1 (stereo unspecified) | -0.742
65 | CCc1ccc2oc(-c3cc(N=Cc4cccc(OC)c4O)ccc3O)nc2c1 | -0.649
66 | CCOC(=O)c1ccc(S(=O)(=O)N2CCN(CC(=O)NC(=O)NC(C)(C)C)CC2)cc1 | -0.0131
67 | Cc1cccc(-n2c(C)cc(/C=N/n3cnnc3)c2C)c1 | -0.128
68 | Cc1ccc(Cl)cc1N1CCN(CC(O)COCc2ccco2)CC1 (stereo unspecified) | -0.376
69 | CCOc1ccccc1CNC(=O)CCN1C(=O)COc2ccccc21 | 0.436

Row | Compound | z-score
70 | Cc1cccc(NC2(C(F)(F)F)N=C3SCCN3C2=O)n1 (stereo unspecified) | -0.397
71 | COc1ccc(C)cc1NC(=O)c1ccc2c(c1)OCO2 | 0.143
72 | O=C(CCl)Nc1cc(-c2ccccc2)nn1-c1ccccc1 | -0.105
73 | c1ccc(CSCCc2ccncc2)cc1 | 0.315
74 | O=C(COC(=O)Cc1ccc(S(=O)(=O)N2CCOCC2)s1)NCCc1ccccc1 | -0.371
75 | N#Cc1cc2c(nc1SCc1ccccc1)CCCC2=O | 0.0828
76 | Cn1c(=S)[nH]c2cccnc21 | 0.201
77 | O=C(O)c1ccc(NC(=S)NC(NC(=O)c2ccco2)C(Cl)(Cl)Cl)cc1 (stereo unspecified) | -0.0488
78 | Cc1ccc(NC(=O)C(=O)NC(C)C2COc3ccccc3O2)cc1 (stereo unspecified) | -0.445
79 | CCOC(=O)c1cc(CC)sc1NC(=O)c1cc([N+](=O)[O-])ccc1N1CCOCC1 | -0.0444
80 | CCC(CO)Nc1ncc([N+](=O)[O-])cc1C#N (stereo unspecified) | -0.425
81 | Cc1ccc(-c2ccc(=O)n(CC(=O)NCCCN3CCCCC3C)n2)cc1 (stereo unspecified) | 0.288
82 | O=C(CN1C(=O)NC2(CCCC2)C1=O)Nc1cccc(-c2nnc3n2CCCCC3)c1 | 0.325
83 | COc1ccccc1N1CCN(C(=O)c2cnn3cccnc23)CC1 | -0.289
84 | COc1ccc(C2=NOC(C(=O)NCc3ccccn3)C2)cc1 (stereo unspecified) | 0.21
85 | Cc1ncc(N=Nc2ccccc2Cl)c(-c2ccccc2)n1 | -0.249
86 | CCOC(=O)CSc1nc2sc3c(c2c(=O)[nH]1)CC(C)(C)OC3 | -0.712
87 | Nc1cc(Cl)ccc1N1CCOCC1 | 0.547
88 | Cc1ccc(-c2cc(C(=O)NCc3ccco3)c3ccccc3n2)s1 | -0.129
89 | CC(C)C1C2=C(CC(C)(C)CC2=O)ON1c1ccccc1 (stereo unspecified) | -1.86
90 | CCN1CCN(c2nc(C)nc3c2sc(=S)n3C)CC1 | -0.0392
91 | Cc1cccc(NC(=S)NN(Cc2ccccc2)c2ccccc2)c1C | -0.141
92 | CC(C)OC(=O)CN1CCN(C2c3ccccc3-c3ccccc32)CC1 | 0.135

Row | Compound | z-score
93 | Cc1[nH]c2ccc(F)cc2c1CCNC(=O)C1CCCCC1C(=O)OCC(F)(F)F (stereo unspecified) | -0.331
94 | N#CC1=C(N)Oc2cc(O)ccc2C1C1CCCCC1 (stereo unspecified) | -0.275
95 | Cc1cccc(N2CCN(Cc3cc(=O)n4ccsc4n3)CC2)c1C | -0.557
96 | O=[N+]([O-])c1cc(C(F)(F)F)ccc1NN=C1CCCC1 | -0.225
97 | Cc1sc2ncnc(N3CCN(CCOc4ccc(Cl)cc4)CC3)c2c1C | 0.146
98 | CCOC(=O)c1ccc(OS(=O)(=O)c2ccccc2)c(OC)c1 | -0.00708
99 | COc1ccc(S(=O)(=O)CCc2nnc(NC(=O)c3cccs3)s2)cc1 | -0.075
100 | COC(=O)c1ccc(C)c(NC(=O)CCSc2ccc(C)cc2)c1 | -0.478
101 | O=C(NN=C1CCCCCC1)c1cc(-c2ccccc2)nc2ccccc12 | 0.713
102 | O=C(CCc1nc2ccccc2s1)Nc1ccccc1 | -0.0346
103 | Cc1sc2ncnc(NCCN3CCOCC3)c2c1C | -0.0966
104 | CC1(C)S/C(=N/N=C/c2cccs2)NC1=O | -0.204
105 | CCn1c(SCC(=O)Nc2ccccc2C)nnc1-c1ccccc1O | -0.0132
106 | CCn1c(Cc2ccc(OC)cc2)nnc1SCC(=O)NC1CCCCC1 | 0.209
107 | COc1cc(C(N)=O)cc(Br)c1OC | 0.364
108 | CCCc1[nH]nc2c1C(CCc1ccccc1)C(C#N)=C(N)O2 (stereo unspecified) | 0.128
109 | O=C(COC(=O)CSc1nnc(-c2ccc(Cl)cc2)o1)NCc1ccc2c(c1)OCO2 | -0.513
110 | Cc1cc(C)n2nc3nc4c(cc3c2n1)CCCC4 | 0.941
111 | COc1ccc(C(=O)c2ccccc2)c(O)c1 | -0.498
